# The list shows a part of the results.
# B1: chr14:52864448:52864598:-|CDS|ENSG00000073712|unk|total|mutant (ssRNA)
# RNA: GGGAGUUCUACAGUCCGACGAUCGAUGGCAGCCUGCAGAUCCGCCUCCAAAGGCAAGACCAUGGCGGACAGUUCUUACAACUCCGAAGUUCAGAAUAUUCUUUCCUUUCUGAAGAUGCAGCAUUUAAACCCAGAUCCUCAGUUCAACAGAGGAUUGAGCAUCA
# B2: chr3:113720845:113720875:-|3pUTR|ENSG00000121579|msi1_unk|FALSE|overlapping (ssRNA)
# RNA: GGGAGUUCUACAGUCCGACGAUCCCUUUUUCUUCAGUAAACCCAACAAUAGUCUAACCUUAAAAAUUGAGUUGAUGUCCUUAUAGGUCACUACCCCUAAAUAAACCUGAAGCAGGUGUUUUCUCUUGGACAUACUAAAAAAUACAACAGAGGAUUGAGCAUCA
# B3: ENSG00000176244:stop:overlap|stop_codon|ENSG00000176244|stop_codon|NA|stop_codon (ssRNA)
# RNA: GGGAGUUCUACAGUCCGACGAUCAAGAUGCGACGAGUGCCUAUAUUUCUAAAGCAAAGGAGCUGAUAGAAAAAUACGGAAUUUAGAAUACAGCAUAUGAGGAAUUUUUCCUUUUGAAGACUUCCAAAUGCUAUCAUGACCUAACAACAGAGGAUUGAGCAUCA
# B4: ENSG00000105576:stop:overlap|stop_codon|ENSG00000105576|stop_codon|NA|stop_codon (ssRNA)
# RNA: GGGAGUUCUACAGUCCGACGAUCAGUUCUCUGAGCAAUUCCCGCCGCUGCUCAAGGAGAGGCUGGCGGCUUUCUAUGGGGUCUAGGUGAUCAUGGAGACUGCCAGGUUUCUGUCUGCGUCGUCGUCGGAGGGAUUACUGGGGACAACAGAGGAUUGAGCAUCA
# B5: chr1:169376695:169376796:+|CDS|ENSG00000117475|unk|FALSE|unique (ssRNA)
# RNA: GGGAGUUCUACAGUCCGACGAUCUCUUCAGCUAGGGAAAAUGCUCACUGAAAAAGCAAUGGAAGUUAAAGCUGUAAGAAUAUUAGUUCCCAAAGCUGCUAUAACUCAUGAUAUCCCCAACAAAAAUACAAAGGUUAAGUCUCUCAACAGAGGAUUGAGCAUCA
# B6: chr11:71804996:71807656:-|three_prime_utr|ENSG00000289716|control|control|control (ssRNA)
# RNA: GGGAGUUCUACAGUCCGACGAUCGAGCCCAAGGAUGAAGGGGGCUCCCUCACUCUGUUACUGUGAAGAGGAAGCCUGAGGUGUAGCAGGCCCAGGCCCCAGAAGUAUGGAAAAAAAUGAGGUAGGGAGGGAGGGGACCUCAGGCAACAGAGGAUUGAGCAUCA
# Biological target: MSI1 full-length (mouse, UniProt Q61474 1-362)
# UniProt Q61474, sequence (Q61474 whole entry): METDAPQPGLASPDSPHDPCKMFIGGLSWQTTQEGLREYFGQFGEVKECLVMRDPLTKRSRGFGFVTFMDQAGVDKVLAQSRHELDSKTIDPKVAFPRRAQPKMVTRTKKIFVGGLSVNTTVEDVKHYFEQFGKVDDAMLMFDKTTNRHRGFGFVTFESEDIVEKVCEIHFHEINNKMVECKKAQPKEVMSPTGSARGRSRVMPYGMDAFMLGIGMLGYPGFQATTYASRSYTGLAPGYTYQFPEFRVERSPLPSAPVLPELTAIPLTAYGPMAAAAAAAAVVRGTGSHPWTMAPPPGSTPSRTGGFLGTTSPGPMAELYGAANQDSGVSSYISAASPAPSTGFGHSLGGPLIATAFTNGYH
# Assay: nsRBNS (natural sequence RNA bind-n-seq); RBNS binding buffer (assumed for nsRBNS): 25 mM Tris pH 7.5, 150 mM KCl, 3 mM MgCl2, 0.01% Triton X-100, 500 ug/ml BSA, 20 U/ml SUPERase-In, 4 C; UNK is unkempt and MSI1 is Musashi-1; names of the RNAs are library labels; protein concentration not given here; high values mean tight binding
row,Binder,binding signal
1,B1,0.508 enrichment R
2,B2,4.66 enrichment R
3,B3,0.512 enrichment R
4,B4,0.344 enrichment R
5,B5,0.662 enrichment R
6,B6,0.777 enrichment R

# Source: article PMC12136788
